Results taken from the supplement of paper PMC8728848.
Some of the results follow.

Legend:
Assay in all cases: glycan array binding signal (z-score within array); higher = stronger binding
Conditions in all cases: glycan notation: IUPAC condensed, linker removed
GlcNAc(b1-3)GalNAc = target: GlcNAc(b1-3)GalNAc
Summary of the method: (§1)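 Negative Z-scores can be read as non-binding. The Z-score is calculated within each array and then averaged across arrays of one protein sequence at different concentrations or buffers and across linkers. Arrays, 3228 in all, were curated from the Consortium for Functional Glycomics database and kept only where the protein sequence was available.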

GlcNAc(b1-3)Man = target: GlcNAc(b1-3)Man
Summary of the method: as §1

[1] = target: GlcNAc(b1-3)[GlcNAc(b1-4)][GlcNAc(b1-6)]GlcNAc
Summary of the method: as §1

[2] = target: GlcNAc(b1-3)[GlcNAc(b1-6)]Gal(b1-4)GlcNAc
Summary of the method: as §1

[3] = target: GlcNAc(b1-3)[GlcNAc(b1-6)]GalNAc
Summary of the method: as §1

[4] = target: GlcNAc(b1-4)Gal(b1-4)GlcNAc
Summary of the method: as §1

GlcNAc(b1-4)GlcNAc = target: GlcNAc(b1-4)GlcNAc
Summary of the method: as §1

[5] = target: GlcNAc(b1-4)GlcNAc(b1-4)GlcNAc
Summary of the method: as §1

[6] = target: GlcNAc(b1-4)GlcNAc(b1-4)GlcNAc(b1-4)GlcNAc(b1-4)GlcNAc
Summary of the method: as §1

[7] = target: GlcNAc(b1-4)GlcNAc(b1-4)GlcNAc(b1-4)GlcNAc(b1-4)GlcNAc(b1-4)GlcNAc
Summary of the method: as §1

[8] = target: GlcNAc(b1-4)[GlcNAc(b1-6)]GalNAc
Summary of the method: as §1

[9] = target: GlcNAc(b1-6)Gal(b1-4)GlcNAc
Summary of the method: as §1

GlcNAc(b1-6)GalNAc = target: GlcNAc(b1-6)GalNAc
Summary of the method: as §1

[10] = target: GlcNAc6S(b1-3)Gal(b1-4)GlcNAc
Summary of the method: as §1

Kdn(a2-3)Gal(b1-3)GalNAc = target: Kdn(a2-3)Gal(b1-3)GalNAc
Summary of the method: as §1

Kdn(a2-3)Gal(b1-3)GlcNAc = target: Kdn(a2-3)Gal(b1-3)GlcNAc
Summary of the method: as §1

Kdn(a2-3)Gal(b1-4)Glc = target: Kdn(a2-3)Gal(b1-4)Glc
Summary of the method: as §1

Kdn(a2-3)Gal(b1-4)GlcNAc = target: Kdn(a2-3)Gal(b1-4)GlcNAc
Summary of the method: as §1

[11] = target: Kdn(a2-3)Gal(b1-4)[Fuc(a1-3)]GlcNAc
Summary of the method: as §1

Kdn(a2-6)Gal(b1-4)GlcNAc = target: Kdn(a2-6)Gal(b1-4)GlcNAc
Summary of the method: as §1

[12] = target: Man(a1-2)Man(a1-2)Man(a1-3)Man
Summary of the method: as §1

[13] = target: Man(a1-2)Man(a1-2)Man(a1-6)[Man(a1-3)]Man
Summary of the method: as §1

Man(a1-2)Man(a1-3)Man = target: Man(a1-2)Man(a1-3)Man
Summary of the method: as §1

[14] = target: Man(a1-2)Man(a1-3)[Man(a1-2)Man(a1-6)]Man
Summary of the method: as §1

[15] = target: Man(a1-2)Man(a1-3)[Man(a1-2)Man(a1-6)]Man(a1-6)[Man(a1-2)Man(a1-2)Man(a1-3)]Man
Summary of the method: as §1

[16] = target: Man(a1-2)Man(a1-3)[Man(a1-2)Man(a1-6)]Man(a1-6)[Man(a1-2)Man(a1-2)Man(a1-3)]Man(b1-4)GlcNAc(b1-4)GlcNAc
Summary of the method: as §1

[17] = target: Man(a1-2)Man(a1-3)[Man(a1-6)]Man(a1-6)[Man(a1-2)Man(a1-3)]Man(b1-4)GlcNAc(b1-4)GlcNAc
Summary of the method: as §1

[18] = target: Man(a1-2)Man(a1-6)[Man(a1-3)]Man(a1-6)[Man(a1-2)Man(a1-2)Man(a1-3)]Man
Summary of the method: as §1

[19] = target: Man(a1-2)Man(a1-6)[Man(a1-3)]Man(a1-6)[Man(a1-2)Man(a1-2)Man(a1-3)]Man(b1-4)GlcNAc(b1-4)GlcNAc
Summary of the method: as §1

Man(a1-3)[Man(a1-6)]Man = target: Man(a1-3)[Man(a1-6)]Man
Summary of the method: as §1

[20] = target: Man(a1-3)[Man(a1-6)]Man(a1-6)[Man(a1-2)Man(a1-3)]Man(b1-4)GlcNAc(b1-4)GlcNAc
Summary of the method: as §1

[21] = target: Man(a1-3)[Man(a1-6)]Man(a1-6)[Man(a1-3)]Man
Summary of the method: as §1

[22] = target: Man(a1-3)[Man(a1-6)]Man(a1-6)[Man(a1-3)]Man(b1-4)GlcNAc(b1-4)GlcNAc
Summary of the method: as §1

[23] = target: Man(a1-3)[Man(a1-6)]Man(b1-4)GlcNAc(b1-4)GlcNAc
Summary of the method: as §1

[24] = target: Man(a1-3)[Man(a1-6)]Man(b1-4)GlcNAc(b1-4)[Fuc(a1-6)]GlcNAc
Summary of the method: as §1

Man(a1-6)Man = target: Man(a1-6)Man
Summary of the method: as §1

Man(b1-4)GlcNAc = target: Man(b1-4)GlcNAc
Summary of the method: as §1

MurNAc(b1-4)GlcNAc = target: MurNAc(b1-4)GlcNAc
Summary of the method: as §1

B1: MGL (Homo sapiens), Q8IUN9 (protein)
chain: MTRTYENFQYLENKVKVQGFKNGPLPLQSLLQRLCSGPCHLLLSLGLGLLLLVIICVVGFQNSKFQRDLVTLRTDFSNFTSNTVAEIQALTSQGSSLEETIASLKAEVEGFKQERQAGVSELQEHTTQKAHLGHCPHCPSVCVPVHSEMLLRVQQLVQDLKKLTCQVATLNNNASTEGTCCPVNWVEHQDSCYWFSHSGMSWAEAEKYCQLKNAHLVVINSREEQNFVQKYLGSAYTWMGLSDPEGAWKWVDGTDYATGFQNWKPGQPDDWQGHGLGGGEDCAHFHPDGRWNDDVCQRPYHWVCEAGLGQTSQESH
B1 was tested, and the “glycan array binding signal (z-score)” value (GlcNAc(b1-3)GalNAc) was -0.231, the “glycan array binding signal (z-score)” value (GlcNAc(b1-3)Man) was -0.24 and the “glycan array binding signal (z-score)” value [1] was -0.403. The “glycan array binding signal (z-score)” value [2] was -0.239, the “glycan array binding signal (z-score)” value [3] was -0.246 and the “glycan array binding signal (z-score)” value [4] was -0.241. For the same binder, the “glycan array binding signal (z-score)” value (GlcNAc(b1-4)GlcNAc) was -0.243, the “glycan array binding signal (z-score)” value [5] was -0.253 and the “glycan array binding signal (z-score)” value [6] was -0.238. For the same binder, the “glycan array binding signal (z-score)” value [7] was -0.252, the “glycan array binding signal (z-score)” value [8] was -0.245 and the “glycan array binding signal (z-score)” value [9] was -0.239. The “glycan array binding signal (z-score)” value (GlcNAc(b1-6)GalNAc) was 4.7, the “glycan array binding signal (z-score)” value [10] was -0.244 and the “glycan array binding signal (z-score)” value (Kdn(a2-3)Gal(b1-3)GalNAc) was -0.238. The “glycan array binding signal (z-score)” value (Kdn(a2-3)Gal(b1-3)GlcNAc) was -0.239, the “glycan array binding signal (z-score)” value (Kdn(a2-3)Gal(b1-4)Glc) was -0.246 and the “glycan array binding signal (z-score)” value (Kdn(a2-3)Gal(b1-4)GlcNAc) was -0.237. The “glycan array binding signal (z-score)” value [11] was -0.247, the “glycan array binding signal (z-score)” value (Kdn(a2-6)Gal(b1-4)GlcNAc) was -0.245 and the “glycan array binding signal (z-score)” value [12] was -0.257. For the same binder, the “glycan array binding signal (z-score)” value [13] was -0.248, the “glycan array binding signal (z-score)” value (Man(a1-2)Man(a1-3)Man) was -0.252 and the “glycan array binding signal (z-score)” value [14] was -0.239. For the same binder, the “glycan array binding signal (z-score)” value [15] was -0.242, the “glycan array binding signal (z-score)” value [16] was -0.252 and the “glycan array binding signal (z-score)” value [17] was -0.247. For the same binder, the “glycan array binding signal (z-score)” value [18] was -0.25, the “glycan array binding signal (z-score)” value [19] was -0.25 and the “glycan array binding signal (z-score)” value (Man(a1-3)[Man(a1-6)]Man) was -0.236. For the same binder, the “glycan array binding signal (z-score)” value [20] was -0.102, the “glycan array binding signal (z-score)” value [21] was -0.246 and the “glycan array binding signal (z-score)” value [22] was -0.248. The “glycan array binding signal (z-score)” value [23] was -0.256, the “glycan array binding signal (z-score)” value [24] was -0.24 and the “glycan array binding signal (z-score)” value (Man(a1-6)Man) was -0.248. For the same binder, the “glycan array binding signal (z-score)” value (Man(b1-4)GlcNAc) was -0.237 and the “glycan array binding signal (z-score)” value (MurNAc(b1-4)GlcNAc) was -0.241.
